Results on 94 sequences are retold here after the supplement of paper PMC3334620.

Whole data set: some 33,000 sequences, median “E-score (-0.5 to 0.5)” near -0.054, cut for the highest 2% near 0.35. This is one part of the list.

The experiment deals with T1, Stb5 (UniProt P38699).
T1 sequence: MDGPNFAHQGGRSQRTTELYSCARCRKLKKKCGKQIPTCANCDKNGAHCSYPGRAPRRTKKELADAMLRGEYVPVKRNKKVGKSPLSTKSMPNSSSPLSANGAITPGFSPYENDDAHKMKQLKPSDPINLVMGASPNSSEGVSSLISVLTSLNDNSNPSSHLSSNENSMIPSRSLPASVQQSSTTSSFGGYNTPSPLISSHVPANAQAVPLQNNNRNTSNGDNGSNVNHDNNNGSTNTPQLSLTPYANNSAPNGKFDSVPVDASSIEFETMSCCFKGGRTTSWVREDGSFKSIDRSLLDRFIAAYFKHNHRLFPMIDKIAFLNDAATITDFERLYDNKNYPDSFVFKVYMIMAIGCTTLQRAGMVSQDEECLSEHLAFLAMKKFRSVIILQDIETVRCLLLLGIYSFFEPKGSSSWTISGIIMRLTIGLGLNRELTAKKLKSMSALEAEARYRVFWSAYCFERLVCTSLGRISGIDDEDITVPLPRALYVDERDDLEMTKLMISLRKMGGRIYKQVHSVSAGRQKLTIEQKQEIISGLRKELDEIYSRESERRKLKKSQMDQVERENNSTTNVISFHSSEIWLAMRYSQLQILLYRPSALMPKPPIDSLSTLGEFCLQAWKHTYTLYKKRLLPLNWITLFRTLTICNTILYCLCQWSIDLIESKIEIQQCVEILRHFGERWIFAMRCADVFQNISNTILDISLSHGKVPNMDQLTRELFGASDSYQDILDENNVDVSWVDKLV
Description: PBM E-score (8-mer binding enrichment) (E-score (-0.5 to 0.5)); higher = stronger / more preferred TF binding; most listed sequences are background and not binding sites. The settings on record: protein concentration: 200 nM; construct: GST-full length. Summed up:
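Using PURExpress in vitro transcription/translation, GST-tagged yeast transcription factors were made in full-length or DNA-binding-domain form. These were applied at about 100-200 nM to double-stranded universal all-10-mer Agilent arrays, and bound protein was detected with fluorescent anti-GST. Scans were normalised with masliner before the Universal PBM Analysis Suite assigned E-scores to ungapped eight-base words pooled with their reverse complements.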
For CAATCAAA, the “PBM E-score” value is -0.298.
For CCCCTGTA, the “PBM E-score” value came out at 0.118.
Consider CGGCTGTC, for which the “PBM E-score” value stood at 0.00374.
For the sequence ACACTAAT, the “PBM E-score” value was -0.249.
CTATCGGC: the “PBM E-score” value is 0.235.
The result for AAGGCGAC reads 0.042; that for CGTTGTGC, 0.138; that for ACGGCAGT, 0.202.
As for CACACTCG, the “PBM E-score” value is -0.0743.
The result for CAGCTGAC reads -0.152; that for CACGTCGC, -0.066.
Regarding GCAGGAGC, the “PBM E-score” value was -0.201.
The result for ATCCACAA reads -0.168.
Consider GAGATATA, for which the “PBM E-score” value stood at 0.149.
As for ATTCCTTC, the “PBM E-score” value was -0.0881.
For AAGTTGCA, the “PBM E-score” value was -0.0624.
The result for AAGCGGCA reads 0.344; that for GAAGCAAA, -0.293; that for AGTACGAT, -0.165.
The result for CGGGGCGA reads 0.317; that for AACCCAAG, -0.199; that for CAGTAGGC, -0.268.
In the case of TGTACGAA, the “PBM E-score” value was -0.0429.
As for CCGCGCGA, the “PBM E-score” value worked out at 0.168.
The result for GTTATATA reads 0.108; that for CTCGAGAC, -0.187.
For ATCAACTC, the “PBM E-score” value was -0.195.
Consider CTTGTGGC, for which the “PBM E-score” value is -0.163.
The result for ATTATAAT reads 0.226.
As for CACTTAAC, the “PBM E-score” value is -0.222.
As to ACCTCCGT, the “PBM E-score” value amounted to 0.302.
GTACGTTA: the “PBM E-score” value came out at 0.0679.
As for GGGTCTTA, the “PBM E-score” value was 0.206.
For the sequence CACGGCAC, the “PBM E-score” value worked out at 0.176.
The result for ACAATCAG reads -0.142; that for ACGCCAGT, -0.112.
In the case of ACCAACTC, the “PBM E-score” value was -0.184.
As to CCAGAAAC, the “PBM E-score” value is -0.0591.
The result for AGTCTAAA reads -0.149; that for CTTATACC, 0.195; that for CTTCCGAC, 0.173.
In the case of GGGGCCCC, the “PBM E-score” value is 0.13.
On to GTTTCGTA, for which the “PBM E-score” value was determined as 0.00765.
The result for CAGCGCGA reads -0.0672.
The result for GGTCTCTA reads 0.0052.
Take AGCATAGC: the “PBM E-score” value was -0.298.
With CGCTACCG, the “PBM E-score” value worked out at 0.16.
Consider AGCGATCA, for which the “PBM E-score” value was -0.0493.
In the case of GGAGTAAC, the “PBM E-score” value is 0.193.
In the case of GCATCCCA, the “PBM E-score” value was -0.0879.
Consider GGTTGGTA, for which the “PBM E-score” value was -0.117.
As to AAAGCAGG, the “PBM E-score” value was -0.00496.
Take TGCCGGCA: the “PBM E-score” value was 0.323.
CATGGGGG: the “PBM E-score” value was -0.25.
As for GCCCCGAA, the “PBM E-score” value amounted to 0.198.
In the case of CAGCTCTA, the “PBM E-score” value is -0.232.
With CTATGATA, the “PBM E-score” value was -0.156.
Take GTGCAGGA: the “PBM E-score” value is -0.0864.
As for AAGTTCCG, the “PBM E-score” value is 0.373.
Consider AAACGGGA, for which the “PBM E-score” value worked out at 0.313.
The result for AAGCTCCT reads -0.165; that for AAAAATCG, -0.206; that for ACTTCTTA, 0.0335.
In the case of TACTGAGA, the “PBM E-score” value is -0.123.
The result for AGCCTGCA reads -0.249; that for CTATATAG, -0.193.
ATTGCCGA: the “PBM E-score” value was found to be 0.318.
As for CTTCCCCA, the “PBM E-score” value is -0.184.
AGAATGGA: the “PBM E-score” value is -0.168.
Consider CCAATTTA, for which the “PBM E-score” value came out at 0.119.
In the case of CCAGTAAC, the “PBM E-score” value was -0.0964.
With AACGCCTC, the “PBM E-score” value was -0.064.
For the sequence GGTGTACA, the “PBM E-score” value was 0.0639.
The result for CTAAAGTA reads -0.066; that for ACCCGTAG, -0.128; that for ACAACCTC, -0.136.
CGCTTATC: the “PBM E-score” value is -0.0495.
Take CAGGGGCG: the “PBM E-score” value was found to be 0.0444.
The result for ATCGCAAG reads -0.244; that for AACGACCT, -0.125.
For CATTGCGG, the “PBM E-score” value was 0.113.
Regarding CTGTGTGA, the “PBM E-score” value is -0.205.
With GCGTGTGA, the “PBM E-score” value is 0.00138.
Turning to TTCATGAA, the “PBM E-score” value was -0.0712.
ACTTGTAC: the “PBM E-score” value was found to be 0.0764.
Consider CCTCTTCC, for which the “PBM E-score” value is -0.246.
As for ATGGTAGC, the “PBM E-score” value was -0.0736.
In the case of GACGAACC, the “PBM E-score” value is -0.0453.
For TACCCTCA, the “PBM E-score” value was -0.168.
Regarding GCCCAGTA, the “PBM E-score” value was -0.257.
With AGGGGCTC, the “PBM E-score” value is -0.354.
For CCAGCGCA, the “PBM E-score” value is -0.0805.
Consider GTTACAAA, for which the “PBM E-score” value was -0.0479.
Turning to AAGGTACC, the “PBM E-score” value was -0.0569.
